According to PubChem BioAssay (Tox21):
Several values for one entry are separate records, joined by “and”; a condition that tells them apart may be missing. Identical values can stand only once. This list was built around the results that the source calls inconclusive (neither active nor inactive); the mix of calls is not that of the screen. For some of these results: Potencies of inconclusive entries are doubtful fits and often do not repeat. Some compounds were tested as several samples or in several runs, with calls that do not always agree. Activity calls are given as the source filed them. Unless noted, calls come from the whole dose curve; as a rule, active = well fitted curve in the direction sought with a large enough effect in the repeat runs; inconclusive = weak or mixed curves; inactive = no such curve, though single readings can be large; an effect the other way counts as inactive or inconclusive.

Assays:
[1] = qHTS RealTime-Glo MT Cell Viability Assay in HepG2 cells - 16 hour (AID 1224885); note: nearly all actives have a fitted effect of over 50% in size
Summary of the method: (§1)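 Cell number in HepG2 cultures estimated from NanoLuc luminescence generated by metabolic reduction of a prosubstrate by living cells. The homogeneous, nonlytic format allowed repeated reads at 0, 8, 16, 24, 32 and 40 h of compound exposure.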

[2] = qHTS RealTime-Glo MT Cell Viability Assay in HEK293 cells - 8 hour (AID 1224887); note: nearly all actives have a fitted effect of over 50% in size
Summary of the method: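 600 HEK293 cells per well, dispensed already mixed with RealTime-Glo MT reagents. Compound dosing came 5 h later. The same wells were read for luminescence at 0, 8, 16, 24, 32 and 40 h of exposure at 37 C.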

[3] = A CellTox Green Cytotoxicity Assay to monitor cytotoxicity in HEK293 cells - 16 hour (AID 1224888); note: nearly all actives have a fitted effect of over 35% in size
Summary of the method: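 Dead-cell fluorescence measured kinetically: asymmetric cyanine dye, HEK293, 600 cells/well, 5 h settle, 23 nL cpd/DMSO, 37 C, reads 0–40 h every 8 h.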

[4] = A CellTox Green Cytotoxicity Assay to monitor cytotoxicity in HepG2 cells - 8 hour (AID 1224890); note: nearly all actives have a fitted effect of over 45% in size
Summary of the method: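 First, HepG2 cells (600/well) mixed with reagent were plated; second, after 5 h at 37 C they received compounds via pintool; third, fluorescence was measured at 0 h through 40 h at 8 h intervals.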

[5] = qHTS assay to identify small molecule antagonists of the androgen receptor (AR) signaling pathway using the MDA cell line in the presence of 0.5 nM R1881 - cell viability counter screen (AID 1259242); note: nearly all actives have a fitted effect of over 45% in size
Summary of the method: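 qHTS format. MDA-kb2 (MMTV-luc, AR/GR responsive) + cpd + 0.5 nM R1881 final, 16 hr 37C/0% CO2 → CellTiter-Fluor 30 min → fluorescence intensity.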

[6] = target: Estrogen receptor (Homo sapiens) (UniProt P03372); experiment: qHTS assay to identify small molecule antagonists of the estrogen receptor alpha (ER-alpha) signaling pathway using the BG1 cell line in the presence of 0.1 nM 17-beta-estradiol (AID 1259244); note: nearly all actives have a fitted effect of over 50% in size
Chain of UniProt P03372 (P03372 whole entry, looked up): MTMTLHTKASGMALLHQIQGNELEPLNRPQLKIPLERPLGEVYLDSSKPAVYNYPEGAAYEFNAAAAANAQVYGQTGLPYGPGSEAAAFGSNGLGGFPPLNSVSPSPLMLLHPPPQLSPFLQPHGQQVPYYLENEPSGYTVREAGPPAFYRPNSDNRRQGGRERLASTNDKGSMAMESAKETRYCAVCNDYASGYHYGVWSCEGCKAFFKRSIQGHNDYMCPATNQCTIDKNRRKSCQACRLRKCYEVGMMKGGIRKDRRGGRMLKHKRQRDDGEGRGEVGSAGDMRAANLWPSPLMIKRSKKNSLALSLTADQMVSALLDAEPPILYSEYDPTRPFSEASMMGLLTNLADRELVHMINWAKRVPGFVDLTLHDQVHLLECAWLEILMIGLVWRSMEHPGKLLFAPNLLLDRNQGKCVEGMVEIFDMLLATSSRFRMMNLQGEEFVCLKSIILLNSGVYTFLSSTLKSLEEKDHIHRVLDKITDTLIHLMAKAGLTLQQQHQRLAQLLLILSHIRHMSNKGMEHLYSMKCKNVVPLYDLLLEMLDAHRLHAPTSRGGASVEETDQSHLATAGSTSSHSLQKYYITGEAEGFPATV
Summary of the method: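 Reporter is a stably transfected luciferase under four estrogen responsive elements in VM7Luc4E2 cells expressing native full-length ER-alpha; inhibition of 0.1 nM (final) 17beta-estradiol-driven signal over 22 h is read by luminescence.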

[7] = qHTS assay to identify small molecule agonists of the sonic hedgehog signaling (Shh) pathway - cell viability counter screen (AID 1259366); note: nearly all actives have a fitted effect of over 50% in size
Summary of the method: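 NIH/3T3-derived Gli1-Luc reporter cells, 2,000 per well, received compound after 4 h and were treated about 23 h at 37C. Viability measured in the same wells by CellTiter-Fluor fluorescence after 1 h.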

[8] = qHTS assay to identify small molecule antagonists of the sonic hedgehog signaling (Shh) pathway - cell viability counter screen (AID 1259367); note: nearly all actives have a fitted effect of over 55% in size
Summary of the method: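 Viability was read by CellTiter-Fluor fluorescence in the same wells, reagent added 23 hr into compound treatment and incubated 1 hr at 37C. The 3T3 Gli1-Luc reporter cells (2,000/well) received conditioned medium after compound and ran 24 hr.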

[9] = qHTS assay to identify small molecule antagonists of the sonic hedgehog signaling (Shh) pathway (AID 1259369; calls by dose curve; note: nearly all actives have a fitted effect of over 45% in size)
Summary of the method: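 Stable Gli1-Luc reporter NIH/3T3 clone; quantitative HTS in stimulated mode with conditioned medium. Luminescence measured after 24hr compound treatment at 37 C.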

[10] = qHTS assay to identify small molecule agonists of the androgen receptor (AR) signaling pathway in the presence of an antagonist - cell viability counter screen (AID 1259379); note: nearly all actives have a fitted effect of over 25% in size
Summary of the method: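 Nilutamide-containing (3.0uM final) MDA-kb2 cultures, 3,000 cells/well, were treated with compounds across 15 concentrations. After 16 hr at 37C with no CO2, cell viability was determined by CellTiter-Fluor fluorescence in the luciferase assay wells.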

[11] = qHTS assay to identify small molecule antagonists of the estrogen receptor alpha (ER-alpha) signaling pathway using the BG1 cell line in the presence of 0.1 nM 17-beta-estradiol - cell viability counter screen (AID 1259241); note: nearly all actives have a fitted effect of over 40% in size
Summary of the method: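 VM7Luc4E2 cells (endogenous full-length ER-alpha, 4xERE-luciferase), cultured 5 days in charcoal-stripped serum, exposed to compounds with 0.1 nM 17beta-estradiol (final) for 22 hr at 37C. Viability read in same wells as live-cell protease fluorescence after 30 min.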

[12] = qHTS assay to identify small molecule HDAC inhibitors - cell viability counter screen (AID 1259365); note: nearly all actives have a fitted effect of over 50% in size
Summary of the method: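 Wild-type HCT-116 cells, 1,500/well, cultured overnight, then compound-treated 2 h at 37 C. Viability measured as ATP luminescence with CellTiter-Glo after 30 min at room temperature.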

[13] = qHTS assay to identify small molecule HDAC inhibitors (AID 1259364);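 note: wild-type HCT-116 cells with endogenous class I/II HDAC activity; nearly all actives have a fitted effect of over 45% in size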
Summary of the method: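 Quantitative high-throughput format: overnight-seeded HCT-116 cells got compounds for 2 hr at 37C; HDAC-Glo I/II reagent added, 30 min RT, luminescence measured.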

[14] = target: Estrogen receptor beta (Homo sapiens) (UniProt Q92731); experiment: qHTS assay to identify small molecule agonists of the estrogen receptor beta (ER-beta) signaling pathway (AID 1259377; active = well fitted activation curve with a large enough effect in the signal ratio in the repeat runs, not every such curve was filed as active; inconclusive = weak or mixed curves, or effect the other way; the % refers to the signal ratio; for activation: % is set by controls: 0 for no effect and ±100 for the full control effect); conditions: ER-beta-UAS-bla HEK293T, beta-lactamase FRET ratio, 16 h; activation: at 92.4 µM (top of the series) unless noted
Chain of UniProt Q92731 (Q92731 whole entry, looked up): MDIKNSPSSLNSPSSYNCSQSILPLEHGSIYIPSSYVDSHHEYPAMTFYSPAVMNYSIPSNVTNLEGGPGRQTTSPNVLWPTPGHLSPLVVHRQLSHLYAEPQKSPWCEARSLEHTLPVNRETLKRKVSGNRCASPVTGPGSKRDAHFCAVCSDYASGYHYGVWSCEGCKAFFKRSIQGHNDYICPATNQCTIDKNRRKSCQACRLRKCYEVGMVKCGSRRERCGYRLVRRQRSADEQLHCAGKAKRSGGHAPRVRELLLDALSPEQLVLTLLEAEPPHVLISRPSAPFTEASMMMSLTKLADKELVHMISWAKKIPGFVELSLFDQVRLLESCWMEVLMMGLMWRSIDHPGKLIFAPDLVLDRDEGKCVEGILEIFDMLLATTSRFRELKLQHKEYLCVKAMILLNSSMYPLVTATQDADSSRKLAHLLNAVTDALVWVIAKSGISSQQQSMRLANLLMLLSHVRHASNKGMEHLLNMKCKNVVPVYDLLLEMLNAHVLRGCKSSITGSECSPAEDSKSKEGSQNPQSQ
Summary of the method: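 ER-beta-UAS-bla HEK293T cells in medium with 2% charcoal-stripped FBS were exposed to compounds for 16 h at 37C. Beta-lactamase reporter activity was read as fluorescence after 2 h with LiveBLAzer B/G FRET substrate at room temperature.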

[15] = target: Estrogen receptor beta (Homo sapiens) (UniProt Q92731); experiment: qHTS assay to identify small molecule antagonists of the estrogen receptor beta (ER-beta) signaling pathway (AID 1259378; active = well fitted inhibition curve with a large enough effect in the signal ratio in the repeat runs, not every such curve was filed as active; inconclusive = weak or mixed curves, or effect the other way; inactive = no such curve, though single readings can be large or run the other way; the % refers to the signal ratio; for activity, negative = inhibition: % is set by controls: 0 for no effect and ±100 for the full control effect); conditions: ER-beta-UAS-bla HEK293T, beta-lactamase FRET ratio, 16 h; activity, negative = inhibition: at 92.4 µM (top of the series) unless noted
Summary of the method: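 Antagonist mode: compounds added to beta-lactamase reporter HEK293T ER-beta-UAS cells stimulated with E2 (1nM final), 16 hr at 37C. LiveBLAzer B/G FRET substrate, 2 hours room temperature, fluorescence read-out.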

[16] = qHTS RealTime-Glo MT Cell Viability Assay in HepG2 cells - 0 hour (AID 1224889); note: nearly all actives have a fitted effect of over 50% in size
Summary of the method: as §1

[17] = target: Androgen receptor (Homo sapiens) (UniProt P10275); experiment: qHTS assay to identify small molecule antagonists of the androgen receptor (AR) signaling pathway using the MDA cell line in the presence of 0.5 nM R1881 (AID 1259243); note: nearly all actives have a fitted effect of over 50% in size
Chain of UniProt P10275 (P10275 whole entry, looked up): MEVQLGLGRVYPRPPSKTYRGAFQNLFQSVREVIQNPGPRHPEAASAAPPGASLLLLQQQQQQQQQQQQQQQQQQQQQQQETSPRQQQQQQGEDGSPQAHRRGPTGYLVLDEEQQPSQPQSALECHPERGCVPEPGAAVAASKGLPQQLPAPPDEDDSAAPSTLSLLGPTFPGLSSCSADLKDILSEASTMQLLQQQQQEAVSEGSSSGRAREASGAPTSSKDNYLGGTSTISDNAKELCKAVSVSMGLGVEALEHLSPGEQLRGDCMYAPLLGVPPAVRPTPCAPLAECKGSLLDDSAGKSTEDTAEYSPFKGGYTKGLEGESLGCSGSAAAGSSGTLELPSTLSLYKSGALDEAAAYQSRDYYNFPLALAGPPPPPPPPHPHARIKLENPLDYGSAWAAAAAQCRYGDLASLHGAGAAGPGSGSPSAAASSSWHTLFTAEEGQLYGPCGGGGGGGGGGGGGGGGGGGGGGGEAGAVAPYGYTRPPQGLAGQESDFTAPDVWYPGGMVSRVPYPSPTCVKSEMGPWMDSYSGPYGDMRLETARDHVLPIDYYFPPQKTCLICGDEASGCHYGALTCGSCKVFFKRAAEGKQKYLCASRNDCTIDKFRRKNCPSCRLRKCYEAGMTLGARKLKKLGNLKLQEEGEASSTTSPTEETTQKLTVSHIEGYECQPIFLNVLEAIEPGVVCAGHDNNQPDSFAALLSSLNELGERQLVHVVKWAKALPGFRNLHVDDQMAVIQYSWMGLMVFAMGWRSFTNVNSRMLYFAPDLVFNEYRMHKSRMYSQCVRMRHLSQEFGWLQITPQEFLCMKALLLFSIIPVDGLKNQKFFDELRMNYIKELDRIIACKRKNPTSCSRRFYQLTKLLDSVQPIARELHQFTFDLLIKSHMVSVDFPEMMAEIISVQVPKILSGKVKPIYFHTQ
Summary of the method: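 Antagonist mode quantitative HTS in MDA-kb2 MMTV-luciferase cells, agonist R1881 at 0.5 nM final, 16 hr exposure at 37C and 0% CO2, luminescent detection.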

[18] = qHTS assay to identify small molecule phospholipidosis (PLD) inducers (AID 1259344; active = well fitted curve in the direction sought with a large enough effect; inconclusive = small, poorly fitted or top-dose-only effect, or another doubt; inactive = no such curve, though single readings can be large; an effect the other way counts as inactive or inconclusive)
Summary of the method: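 Phospholipid accumulation was scored by imaging: fixed, Hoechst-counterstained HepG2 cells stained with LipidTOX Red after 24 h compound exposure at 37 C. Read-outs were pit count and pit intensity per well or per cell, with amiodarone and DMSO controls.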
Potency is the fitted concentration of half-maximal effect; tags give direction and shape of the fitted curve or compound fluorescence and quenching.

Structure (SMILES): O=S1OCC2C(CO1)C1(Cl)C(Cl)=C(Cl)C2(Cl)C1(Cl)Cl (centres undefined)
- Potency [1]: inconclusive: 49 µM [cytotoxic, partial curve] and active: 48.9 µM
- Potency [2]: inconclusive: 17.4 µM [cytotoxic, full curve]
- Potency [3]: inconclusive: 55 µM [activator, single point] and inconclusive: 61.6 µM [activator, single point]
- Potency [4]: inconclusive: 55 µM [activator, single point]
- Potency [5]: inconclusive: 68.7 µM [cytotoxic, single point]
- Potency [6]: inconclusive: 68.5 µM [inhibitor, single point]
- Potency [7]: inconclusive: 68.7 µM [cytotoxic, single point] and inconclusive: 68.5 µM [cytotoxic, single point]
- Potency [8]: inconclusive: 27.3 µM [cytotoxic]
- Potency [9]: inconclusive: 12.2 µM [inhibitor] and inconclusive: 4.85 µM [inhibitor, full curve, poor fit]
- Potency [10]: inconclusive: 68.7 µM [cytotoxic]

Structure (SMILES): Oc1cccc2cccnc12
- Potency [1]: active: 3.89 µM
- Potency [2]: inconclusive: 43.6 µM [cytotoxic, partial curve, poor fit]
- Potency [11]: inconclusive: 3.08 µM [cytotoxic, full curve]
- Potency [5]: inconclusive: 3.08 µM [cytotoxic, full curve] and inconclusive: 5.45 µM [cytotoxic, full curve]
- Potency [12]: inconclusive: 54.5 µM [rising, partial curve, poor fit]

Structure (SMILES): [F][Sn]([c]1ccccc1)([c]1ccccc1)[c]1ccccc1
- Potency [1]: active: 0.871 µM
- Potency [2]: active: 1.74 µM
- Potency [3]: active: 6.16 µM
- Potency [5]: active: 2.17 µM
- Potency [13]: inconclusive: 611 nM [inhibitor, partial curve, poor fit]
- Potency [8]: active: 0.154 µM
- activation [14]: inconclusive: 5.99%
- Potency [15]: inconclusive: 3.06 µM [rising, partial curve]
- Potency [10]: active: 4.33 µM

Structure (SMILES): O=[N+]([O-])c1cc([N+](=O)[O-])c2ccccc2c1
- Potency [1]: inconclusive: 21.9 µM [cytotoxic, single point]
- Potency [3]: inconclusive: 43.6 µM [activator, partial curve]
- Potency [16]: inconclusive: 21.9 µM [cytotoxic, single point]
- Potency [4]: inconclusive: 0.49 µM [activator, single point]
- Potency [5]: inactive
- Potency [17]: active: 4.33 µM
- Potency [18]: inconclusive: 1.12 µM [activator, single point]
- activation [14]: inconclusive: 8.48%
- activity, negative = inhibition [15]: inconclusive: 1.94%

Structure (SMILES): CC(C)OC(=O)C(O)(c1ccc(Cl)cc1)c1ccc(Cl)cc1
- Potency [1]: inconclusive: 43.6 µM [cytotoxic, partial curve, poor fit]
- Potency [2]: inconclusive: 24.5 µM [cytotoxic, partial curve]
- Potency [3]: inconclusive: 54.9 µM [activator, single point]
- Potency [4]: inconclusive: 43.6 µM [activator, partial curve, poor fit]
- Potency [15]: active: 30.6 µM

Structure (SMILES): O=C1C(Cl)=C(Cl)C(=O)c2ccccc21
- Potency [1]: active: 21.9 µM and active: 6.92 µM
- Potency [3]: inconclusive: 12.3 µM [activator, partial curve]
- Potency [16]: inconclusive: 39 µM [cytotoxic, partial curve, poor fit] and inconclusive: 4.9 µM [cytotoxic, partial curve, poor fit]
- Potency [11]: active: 24.4 µM and inconclusive: 68.6 µM [cytotoxic, partial curve, poor fit]
- Potency [5]: active: 43.4 µM and inconclusive: 48.6 µM [cytotoxic, partial curve]
- Potency [13]: inconclusive: 24.4 µM [inhibitor, partial curve] and inconclusive: 30.6 µM [inhibitor, partial curve]
- Potency [12]: active: 61.3 µM and active: 38.6 µM
- Potency [7]: inconclusive: 6.86 µM [cytotoxic, full curve, poor fit]
- Potency [8]: active: 4.87 µM and inconclusive: 13.7 µM [cytotoxic, partial curve, poor fit]
- Potency [9]: inconclusive: 3.06 µM [inhibitor, full curve, poor fit]
- Potency [14]: inconclusive: 19.4 µM [rising, partial curve] and inconclusive: 15.4 µM [rising, partial curve]
